# In the supplement of paper PMC9174493:
# This is one part of the list. Single values of this set are uncertain. Values with irradiation are relative to irradiated vehicle.
# Key:
# A549-Dual [1] = test: NF-kB reporter (SEAP) activity, viability-corrected, relative to vehicle (fold change vs vehicle); higher = more activation of STING-IRF / NF-kB immune response reporter; details: 10 µM
# A549-Dual [2] = test: ISRE reporter (Lucia luciferase) activity, viability-corrected, relative to vehicle (fold change vs vehicle); higher = more activation of STING-IRF / NF-kB immune response reporter; details: 10 µM
# 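Wherever NF-kB reporter (SEAP) activity, viability-corrected, relative to vehicle is given: viability correction based on the alamar blue assay, with concentrations leaving 10% survival or less dropped.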
SMILES,NF-kB reporter (A549-Dual [1]; irradiation: 8 Gy/4 fr),NF-kB reporter (A549-Dual [1]; irradiation: none),ISRE reporter (A549-Dual [2]; irradiation: 8 Gy/4 fr),ISRE reporter (A549-Dual [2]; irradiation: none)
CC1CN(c2c(F)c(N)c3c(=O)c(C(=O)O)cn(C4CC4)c3c2F)CC(C)N1 (stereo not given) [Sparfloxacin],0.595,0.962,0.578,0.779
NCCCS(=O)(=O)O [Homotaurine],0.746,1.25,0.657,0.702
CNC1C(OC2C(OC3C(O)C(O)C(NC(=N)N)C(O)C3NC(=N)N)OC(C)C2(O)C=O)OC(CO)C(O)C1O.CNC1C(OC2C(OC3C(O)C(O)C(NC(=N)N)C(O)C3NC(=N)N)OC(C)C2(O)C=O)OC(CO)C(O)C1O.O=S(=O)(O)O.O=S(=O)(O)O.O=S(=O)(O)O (stereo not given) [Streptomycin sulfate],1.01,0.958,0.929,1.04
C=CCNC(N)=S [Allylthiourea],0.848,0.865,0.776,0.822
CNCCCC1c2ccccc2C=Cc2ccccc21.Cl [Protriptyline hydrochloride],0.583,0.892,0.648,0.873
OCC1OC(O)CC(O)C1O [2-Deoxy-D-glucose],0.984,0.857,0.989,0.849
CC(C)(C)NCC(O)COc1cccc2c1CCC(=O)N2.Cl (stereo not given) [Carteolol HCl],1.69,1.25,1.42,0.761
O=C(O)CCC(=O)Nc1ccc(S(=O)(=O)Nc2nccs2)cc1 [Succinylsulfathiazole],0.935,0.883,0.769,0.651
O=S(=O)([O-])CCCS(=O)(=O)[O-].[Na+].[Na+] [Eprodisate disodium],0.788,0.818,0.746,0.748
CC(C)CC(NC(=O)C(CCCCN)NC(=O)CNC(=O)C(CC(C)C)NC(=O)C(NC(=O)C1CSSCC(N)C(=O)NC(CO)C(=O)NC(CC(N)=O)C(=O)NC(CC(C)C)C(=O)NC(CO)C(=O)NC(C(C)O)C(=O)N1)C(C)C)C(=O)NC(CO)C(=O)NC(CCC(N)=O)C(=O)NC(CCC(=O)O)C(=O)NC(CC(C)C)C(=O)NC(Cc1cnc[nH]1)C(=O)NC(CCCCN)C(=O)C(=O)C(CC(C)C)NNC(CCC(N)=O)C(=O)NC(C(=O)C(=O)C(Cc1ccc(O)cc1)NN1CCCC1C(=O)NC(CCCNC(=N)N)C(=O)NC(C(=O)NC(CC(N)=O)C(=O)NC(C(=O)NCC(=O)NC(CO)C(=O)NCC(=O)NC(C(=O)N1CCCC1C(N)=O)C(C)O)C(C)O)C(C)O)C(C)O (stereo not given) [Salmon Calcitonin Acetate],0.845,1.34,0.902,1.11
Nc1ncnc2c1ncn2C1OC(CO)C(O)C1O (stereo not given) [Adenosine],0.953,0.998,0.923,0.795
Cl.NC1CCCCN(c2c(F)cc3c(=O)c(C(=O)O)cn(C4CC4)c3c2Cl)C1 (stereo not given) [Besifloxacin HCl],0.979,0.881,0.887,0.919
CNC1CCc2[nH]c3ccc(C(N)=O)cc3c2C1.O=C(O)CCC(=O)O (stereo not given) [Frovatriptan Succinate],0.839,1.41,0.671,0.735
CC(CS)C(=O)N1CCCC1C(=O)O (stereo not given) [Captopril],0.832,0.774,0.858,0.752
OCCOc1ccc(/C(=C(/CCCl)c2ccccc2)c2ccccc2)cc1 [Ospemifene],1.2,0.825,1.25,0.97
